Source: article PMC4336329 (PLoS ONE, 2015)
The whole screen tested about 310,000 compounds, of which about 14,000 (4.5%) showed an effect of 50% or more. The effect is printed as a negative number. Some of the results follow.

molecular target: human ether-à-go-go-related gene (hERG) potassium channel (human, UniProt Q12809); test: primary screen, population patch clamp on CHO cells stably expressing hERG
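Also: peak tail current of the secondary pulse compared with the same well before compound.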

human ether-à-go-go-related gene (hERG) potassium channel, sequence (Q12809 whole entry, looked up): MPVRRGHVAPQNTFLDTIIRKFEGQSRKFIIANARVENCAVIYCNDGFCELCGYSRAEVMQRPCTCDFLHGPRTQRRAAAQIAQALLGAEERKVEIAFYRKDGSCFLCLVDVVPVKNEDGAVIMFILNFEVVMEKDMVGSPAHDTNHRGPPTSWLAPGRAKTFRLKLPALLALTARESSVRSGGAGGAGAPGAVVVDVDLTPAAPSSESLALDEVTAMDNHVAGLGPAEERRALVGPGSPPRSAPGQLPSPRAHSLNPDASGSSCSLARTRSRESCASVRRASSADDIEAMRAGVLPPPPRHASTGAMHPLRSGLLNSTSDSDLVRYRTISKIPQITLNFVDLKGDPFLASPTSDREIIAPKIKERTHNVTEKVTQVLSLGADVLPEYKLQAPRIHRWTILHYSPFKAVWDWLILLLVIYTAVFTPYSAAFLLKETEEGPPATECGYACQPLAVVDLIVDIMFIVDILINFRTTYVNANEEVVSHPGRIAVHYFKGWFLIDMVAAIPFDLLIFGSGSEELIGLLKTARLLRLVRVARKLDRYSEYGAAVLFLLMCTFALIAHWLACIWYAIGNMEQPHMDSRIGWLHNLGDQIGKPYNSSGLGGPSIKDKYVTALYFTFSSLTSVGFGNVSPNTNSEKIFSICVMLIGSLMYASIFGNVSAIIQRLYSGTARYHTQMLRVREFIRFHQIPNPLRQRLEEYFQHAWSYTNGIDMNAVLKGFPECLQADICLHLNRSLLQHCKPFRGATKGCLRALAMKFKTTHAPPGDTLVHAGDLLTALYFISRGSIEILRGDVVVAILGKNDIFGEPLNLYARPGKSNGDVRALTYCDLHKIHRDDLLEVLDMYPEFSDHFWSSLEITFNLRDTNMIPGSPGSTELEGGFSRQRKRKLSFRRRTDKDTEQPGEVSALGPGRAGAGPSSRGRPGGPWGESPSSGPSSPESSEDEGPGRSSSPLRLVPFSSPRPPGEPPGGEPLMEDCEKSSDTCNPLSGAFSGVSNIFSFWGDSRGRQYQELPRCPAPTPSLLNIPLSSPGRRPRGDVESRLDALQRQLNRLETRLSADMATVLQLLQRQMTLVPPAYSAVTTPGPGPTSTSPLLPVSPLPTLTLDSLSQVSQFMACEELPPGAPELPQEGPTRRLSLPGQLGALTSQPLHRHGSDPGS

Row | SMILES | hERG current change (%, negative = inhibition) at 10uM
1 | O=C1C=C(c2ccc3[nH]ccc3c2)CCC1 | 16.3%
2 | O=C(CSc1nc2cccnc2n1Cc1ccccc1)N1CCCC1 | -63.7%
3 | CCCSc1nc(C)c(CC(=O)O)c(=O)[nH]1 | 9.31%
4 | Cc1cc(C(=O)N/N=C/c2ccc(-c3cccc(Cl)c3)o2)n[nH]1 | 11.3%
5 | COc1ccc2sc(-c3ccc(N(C)C)cc3)c(C#CC(C)(C)O)c2c1 | 9.76%
6 | CCOc1ccc(-n2ccnc2SCC(=O)Nc2cc(C)on2)cc1 | 2.57%
7 | Cc1ccc(-n2ncc3c2CC(C)(C)CC3NC(=O)CCc2c(C)noc2C)cc1 (centres unmarked) | -32.3%
8 | CCNC(=O)C(=O)Nc1ccc(OC)c(Cl)c1 | 14.4%
9 | COc1ccc(S(=O)(=O)NCC2CCCN(C(=O)c3ccco3)C2)cc1 (centres unmarked) | 5.13%
10 | CCC(C)NCCOCCOc1cc(C)c(Cl)c(C)c1.O=C(O)C(=O)O (centres unmarked) | -59.2%
11 | Cc1ccc(C2OCC3(CO2)COC(c2ccc(C)cc2)OC3)cc1 (centres unmarked) | 1.72%
12 | Cn1c(=O)oc2cc(S(=O)(=O)N3CCN(c4ccccc4)CC3)ccc21 | -5.02%
13 | O=C(CN(Cc1ccccc1Cl)C(=O)CCC(=O)Nc1nccs1)NCC1CCCO1 (centres unmarked) | 7.87%
14 | CN(C)c1cccc(C(=O)NNC(=O)/C=C/c2cccs2)c1 | -3.37%
15 | Cc1cccc(N2CCN(S(=O)(=O)c3c(C)[nH]c(=O)[nH]c3=O)CC2)c1C | 23.5%
16 | O=C1CSC(c2cccc(O)c2)N1Cc1ccccc1 (centres unmarked) | 11%
17 | CN(C)CCCNc1nc(N)c([N+](=O)[O-])c(NCc2ccccc2)n1 | -34.5%
18 | O=c1[nH]c2c(c(=O)[nH]1)CCC2 | 17.7%
19 | COc1ccc(-n2ncc(C(C)NS(=O)(=O)c3cccs3)c2C)cc1 (centres unmarked) | 2.48%
20 | CCCOc1ccc(C2CC(=O)NC2=O)cc1 (centres unmarked) | 9.32%
21 | O=C(Cc1ccc(Cl)cc1)N/N=C/c1c(Cl)cccc1Cl | 8.7%
22 | Cc1ccc(C)c(OCCC(=O)OCC(=O)Nc2cccc(S(=O)(=O)N3CCCC3)c2)c1 | 9.08%
23 | CN1CCN(/N=C/c2ccc(-c3ccccc3)cc2)CC1 | -43%

Row | SMILES | hERG current change (%, negative = inhibition) at 10uM
24 | CC(C)OC(=O)c1ccc(N2CCN(c3ccccc3F)CC2)nc1 | 16%
25 | CC(C)CNC(=O)CC(c1ccccc1)c1c(O)ccc2ccccc12 (centres unmarked) | 4.84%
26 | CC(=O)c1sc(NS(=O)(=O)c2ccc(C)cc2)nc1C | 18.2%
27 | CC(C)(C)c1cc(C(=O)NCc2ccco2)ccn1 | 16.3%
28 | CC(=O)N(c1nc(CCl)cs1)c1ccc(C)cc1C | 12.4%
29 | O=C(N/N=C/c1ccco1)c1cccc(NC(=O)c2cccc(Cl)c2)c1 | -34.9%
30 | CC1(C(=O)NCCN2CCOCC2)C=CCN1C(=O)c1ccccc1 (centres unmarked) | 3.07%
31 | CC(C)(C)OC(=O)NC(=NCCCc1cn(CC(=O)N2CCN(C(=O)OC(C)(C)C)CC2)nn1)NC(=O)OC(C)(C)C | 5.68%
32 | O=C(O)C(=O)O.OCCNCCSc1ccc(Cl)cc1 | -1.72%
33 | CCOC(=O)Cn1nnnc1C(C(C)C)N(Cc1cc2c(C)cc(C)cc2[nH]c1=O)C1CCCC1 (centres unmarked) | 14.5%
34 | CCOc1ccccc1NC(=O)CSc1nnc(CNC(=O)c2cc(OC)c(OC)c(OC)c2)o1 | -3.96%
35 | CCN1CCN(Cc2cc(Br)ccc2O)CC1 | -22.7%
36 | CNCCOc1ccccc1C(C)(C)C.O=C(O)C(=O)O | 8.04%
37 | COc1ccc(S(=O)NC2CCCCC2)c(OC)c1C (centres unmarked) | -2.46%
38 | O=C(NCc1ccccc1)C1CCCN1C(=O)Nc1ccccc1[N+](=O)[O-] (centres unmarked) | -1.32%
39 | Cc1c(C(=O)NCCSCc2ccccc2Cl)cccc1[N+](=O)[O-] | -14.3%
40 | CN(C)c1ccc(C#Cc2ccc3cc(CCO)oc(=O)c3c2)cc1 | 5.93%
41 | CN(C(=O)COC(=O)/C=C/c1ccc2ccccc2n1)c1c(N)n(Cc2ccccc2)c(=O)[nH]c1=O | 4.53%
42 | CNC(=O)NC(=O)COC(=O)CCc1nc(=O)c2ccccc2n1C | -19.2%
43 | O=[N+]([O-])c1cc(Br)c2nsnc2c1N1CCOCC1 | -45%
44 | Cc1cnccc1CN(C)Cc1nc(Cc2ccccc2Cl)no1 | 1.88%
45 | C=CCN1C(=O)c2ccc(C(=O)NCC(=O)Nc3c(C)cc(C)cc3C)cc2C1=O | 14%
46 | Cc1ccc(-c2nc(-c3ccncc3)no2)cc1 | 21.3%

Row | SMILES | hERG current change (%, negative = inhibition) at 10uM
47 | CS(=O)(=O)N(CC(=O)N1CCN(c2ccccc2F)CC1)c1ccc2c(c1)OCCO2 | -15.2%
48 | N/C(=N\N=C\c1cccc([N+](=O)[O-])c1)c1nonc1N | 0.273%
49 | COC(=O)C(C)Sc1nc2c(c(=O)[nH]c(=O)n2C)n1CCC(C)C (centres unmarked) | -24.6%
50 | Cc1nc2cc(CC(=O)O)ccc2o1 | 2.46%
51 | Cc1cc2c(cc1S(=O)(=O)N1CCN(c3cccc(C)c3C)CC1)OCC(=O)N2 | 2.67%
52 | CN(C)CCCN1C(=O)C(=O)/C(=C(/O)c2ccncc2)C1c1ccccc1 (centres unmarked) | -11%
53 | Cc1ccc(CNC(=O)[C@H](C)[C@H]2C[C@]2(C)[C@H](NC(=O)OCc2ccccc2)c2ccccc2)o1 | -11.1%
54 | Cc1ccc(CCCOC(=O)C[N+]2(C)CCCC2)cc1.[I-] | 11.7%
55 | COc1cccc(NC(=O)C(NCCC(C)C)c2ccccc2)c1 (centres unmarked) | -1.13%
56 | CCS(=O)(=O)CCSC(=N)N.Cl | -53.3%
57 | CC(C)c1nc(N2CCOCC2)c(C#N)c2c1COC(C)(C)C2 | 9.56%
58 | COc1ccc(C(=O)N2CCC3(CC2)OCCO3)cc1 | 19%
59 | COC(=O)c1[nH]c2ccc(F)cc2c1NS(=O)(=O)c1ccc(OC)cc1 | -0.422%
60 | Cl.c1cncc(CNc2ncnc3sc4c(c23)CCC4)c1 | -56.2%
61 | CC(C)CNC(=O)c1cc(-c2ccc3c(c2)OCO3)on1 | 22.2%
62 | COc1ccccc1CNC(=O)COC(=O)c1cccc(S(=O)(=O)N2CCCCC2)c1 | 0.496%
63 | Cc1ccccc1NS(=O)(=O)c1ccc2c3c(cccc13)C(=O)N2C | -4.02%
64 | CCC(C)(C(=O)NC1CCCC1)N(CC1CCCO1)C(=O)c1ccc2c(c1)OCO2 (centres unmarked) | -3.35%
65 | CCCOC(=O)c1ccc(NC(=O)C2CCCO2)cc1 (centres unmarked) | 5.07%
66 | CC1CN(c2ccc([N+](=O)[O-])c(NCCOc3ccccc3)c2)CC(C)N1 (centres unmarked) | -26.9%
67 | CCOC(=O)Nc1ccc2c(c1)N(C(=O)CN1CCN(C)CC1)c1ccccc1S2.Cl | -64.4%
68 | FC(F)(F)c1ccccc1NC(=S)Nn1cnnc1 | 13.7%
69 | CSc1ccccc1NC(=O)CN(C)CC(=O)Nc1ccccc1C(F)(F)F | -8.94%

Row | SMILES | hERG current change (%, negative = inhibition) at 10uM
70 | COCc1cc(OC)nc(-c2csc(C)n2)n1 | 20%
71 | COC(=O)[C@@]1(Cc2ccc(OC)cc2)[C@H]2c3cc(C(=O)N(C)C)n(Cc4ccc(OC(F)(F)F)cc4)c3C[C@H]2CN1C(=O)c1ccccc1 | 9.99%
72 | Cc1ccc(-c2ocnc2C(=O)Nc2ccccc2C(=O)N2CCCC2)cc1 | -8.99%
73 | O=c1c(Br)c(N2CCCCC2)cnn1-c1ccccc1 | -16.5%
74 | O=C(NCC1CCCN1S(=O)(=O)c1cccs1)c1ccc(F)c(F)c1 (centres unmarked) | -14.7%
75 | CCC(=O)Nc1ccc(C(=O)COC(=O)CCN2C(=O)C3CC=CCC3C2=O)cc1 (centres unmarked) | 8.6%
76 | CCC(C)(C)n1nnnc1C(c1ccc(C)cc1)N1CCN(Cc2ccc3c(c2)OCO3)CC1 (centres unmarked) | -50.3%
77 | N#C/C(=C\c1ccc2c(c1)OCO2)C(=O)NCc1ccco1 | 11.6%
78 | CCn1c(COc2ccccc2C)nnc1SCC(=O)CC(=O)Nc1ccccc1OC | -11.7%
79 | CCOC(=O)C(=NC1CCCCC1)NNc1cccc(C(F)(F)F)c1 | 1.54%
80 | CC(CCc1ccccc1)NC(=O)c1ccco1 (centres unmarked) | 13.8%
81 | COc1cccc(OC)c1OCCOc1ccc(C(=O)c2ccccc2)cc1 | -4.82%
82 | Cc1ccc(-n2c(O)c(C=Nc3ccc4c(c3)OCO4)c3ccccc3c2=O)cc1C | -6.15%
83 | O=C(NCC(c1ccco1)N1CCN(c2ccccc2F)CC1)OCc1ccccc1 (centres unmarked) | -13%
84 | O=C(Nc1cccnc1)c1cnn2cccnc12 | -20.1%
85 | CN(c1ccc(OCC(=O)OCC(=O)c2c(N)n(C)c(=O)n(C)c2=O)cc1)S(=O)(=O)c1ccc2ccccc2c1 | -0.746%
86 | COC(=O)c1ccc(CNC(=O)c2ccc(OCC(=O)N3CCOCC3)c(OC)c2)cc1 | 11.8%
87 | Cc1cccc(N2CCN(C(=O)CNC(=O)c3ccccc3)CC2)c1C | -30.6%
88 | COCCCN1C(=O)C(=O)/C(=C(/O)c2ccc(C)cc2)C1c1ccccc1 (centres unmarked) | 9.22%
89 | CCC(C)NC(=O)CSc1n[nH]c(=O)n1CCc1ccccc1 (centres unmarked) | -4.84%
